Structures are written as SMILES. “And” between values parts separate entries of the source, which are not always exact repeats. Equal entries are not always repeated. Structures can show the parent of a compound that is named as a salt. Some of the results follow. Repeats are few or missing, and single values can be far off.

One test concerns hiPSC-derived cardiomyocytes. The experiment in a line: time to death of most cells in well after compound addition (days); higher = less cardiotoxic; extreme values may be limits of the assay. The note with it: screen: 2; 10 µM.
On to `O=C(NC1CCNCC1)c1n[nH]cc1NC(=O)c1c(Cl)cccc1Cl`, for which the “time to death of most cells in well” value was determined as 3.5.
Still for that read-out and setting: the same measure for `CS(=O)(=O)CCNCc1ccc(-c2ccc3ncnc(Nc4ccc(OCc5cccc(F)c5)c(Cl)c4)c3c2)o1`: 2.5.
The same measure, in the same setting: in the case of `C=CC(=O)Nc1cccc(Sc2nc(Nc3ccc(N4CCN(C)CC4)cc3)ncc2Cl)c1` it was 3.5; in that of `CNc1nc(Nc2cnn(C3CCN(C4COC4)CC3F)c2Cl)ncc1C(F)(F)F` (centres undefined), 3; in that of `Cc1cc(Nc2cc(N3CCN(C)CC3)nc(Sc3ccc(NC(=O)C4CC4)cc3)n2)n[nH]1` [Tozasertib (VX-680, MK-0457)], greater than 7.
On the same count and under the same terms, the same measure for `Cc1nc(Nc2cnn(C3CCNCC3)c2)nc2c1N(C)C(=O)c1cc3ccccc3cc1N2C`: 3.
`CNc1nc(-c2ccc3c(N)n[nH]c3c2)cc(N2C[C@@H](C(=O)NC3CCCCC3)CC[C@H]2C)n1`: the “time to death of most cells in well” value is greater than 7.
Still for that read-out and setting: in the case of `C=CCc1ccc(O)c(-c2ccc(O)c(CC=C)c2)c1` [Honokiol] it was greater than 7; in that of `CCN1CCN(Cc2ccc(C(=O)Nc3ccc(C)c(Oc4ccc5c(c4)CC(=O)N5)c3)cc2C(F)(F)F)CC1`, 3; in that of `O=C1NC(=O)/C(=C/c2cccc(C(F)(F)F)c2)S1`, greater than 7.
On to `CN(c1ncccc1CNc1nc(Nc2ccc3c(c2)CC(=O)N3)ncc1C(F)(F)F)S(C)(=O)=O`, for which the “time to death of most cells in well” value was > 7 and 2.5.
The same measure, in the same setting: in the case of `CC(C)[C@H](CO)Nc1nc(Nc2cccc(Cl)c2)c2ncn(C(C)C)c2n1` [Purvalanol A] it was greater than 7.
As for `CCN1CCN(C(=O)Cc2ccc(Nc3ncc(F)c(Nc4ccc(C(=O)Nc5ccccc5Cl)cc4)n3)cc2)CC1` [Aurora A Inhibitor I], the “time to death of most cells in well” value was greater than 7.
For `O=C1NC(=O)/C(=C/c2ccc(-c3ccc(F)cc3O)o2)S1`, the “time to death of most cells in well” value is greater than 7.
Turning to `CCCS(=O)(=O)Nc1ccc(F)c(C(=O)c2c[nH]c3ncc(-c4ccc(Cl)cc4)cc23)c1F` [Vemurafenib (PLX4032, RG7204)], the “time to death of most cells in well” value is greater than 7.
For `NC(=O)c1cccc(-c2cc(Nc3ccc(OC(F)(F)F)cc3)ncn2)c1`, the “time to death of most cells in well” value is greater than 7.
For the compound `CCOC(=O)c1cnc2ccc(-c3cncc(NS(=O)(=O)c4ccccc4)c3)cn12`, the “time to death of most cells in well” value amounted to 5.
On the same count and under the same terms, in the case of `O=c1sn(-c2cccc3ccccc23)c(=O)n1Cc1ccccc1` [Tideglusib] it was greater than 7; in that of `O=C1Nc2ccc(I)cc2C1=Cc1cc(Br)c(O)c(Br)c1`, greater than 7; in that of `O=C(NCc1cccc(O)c1)Nc1nc(-c2ccncc2)cs1`, 2.5.
Still for that read-out and setting: in the case of `Nc1nccc(Oc2ccc(NC(=O)c3c[nH]cc(-c4ccc(F)cc4)c3=O)cc2F)c1Cl` it was 5; in that of `COc1cccc(-c2cc(=O)c3ccccc3o2)c1N`, greater than 7.
Same read-out and setting: the same measure for `Cc1c(Cn2c(C)nc3c(C(=O)O)cc(N4CCOCC4)cc32)cccc1C(F)(F)F`: greater than 7.
As for `Cc1cnc(NC(=O)Nc2cc(Br)c(C)cc2OC[C@@H]2CNCCO2)cn1`, the “time to death of most cells in well” value amounted to 3.
As to `O=C(Nc1ccc(OC(F)(F)F)cc1)c1sccc1NCc1ccnc2ccccc12`, the “time to death of most cells in well” value is greater than 7.
For the compound `C[S+]([O-])c1ccc(-c2nc(-c3ccc(F)cc3)c(-c3ccncc3)[nH]2)cc1` (centres undefined), the “time to death of most cells in well” value was greater than 7.
The same measure, in the same setting: in the case of `CN1CC[C@@H](c2c(O)cc(O)c3c(=O)cc(-c4ccccc4Cl)oc23)[C@@H]1CO` it was 1.5; in that of `CC[C@@](C)(Nc1ccnc(-c2c[nH]c3ncccc23)n1)C(=O)NCC(F)(F)F` [Decernotinib (VX-509)], 5; in that of `Cc1ccc(NC(=O)c2ccc(CN3CCN(C)CC3)cc2)cc1Nc1nccc(-c2cccnc2)n1` [Imatinib Mesylate (STI571)], greater than 7.
Still for that read-out and setting: in the case of `CCn1c(N)c(C(=O)NC)c(=O)c2ccc(C#CC(C)(O)COC)nc21` (centres undefined) it was greater than 7; in that of `Cc1ccc(NC(=O)c2cccc(C(C)(C)C#N)c2)cc1Nc1ccc2ncn(C)c(=O)c2c1`, greater than 7.
Still for that read-out and setting: the same measure for `O=C(c1ccc(F)c(F)c1Nc1ccc(I)cc1F)N1CC(O)([C@@H]2CCCCN2)C1` [Cobimetinib (GDC-0973, RG7420)]: 3; for `COCCOc1ccc2c(c1)ncn2-c1ccc2cccc(N3CCC(N)CC3)c2n1`: 5.5; for `Cc1cc(C)c(/C=C2\C(=O)Nc3ccccc32)[nH]1` [Semaxanib (SU5416)]: greater than 7.
Regarding `CN1CCN(c2ccc3nc(-c4c(N)c5c(F)cccc5[nH]c4=O)[nH]c3c2)CC1` [Dovitinib (TKI-258, CHIR-258)], the “time to death of most cells in well” value turned out to be 2.5.
Same read-out and setting: the same measure for `COc1cc(C(=O)NC2CCN(C)CC2)ccc1Nc1ncc2c(n1)N(C1CCCC1)CC(F)(F)C(=O)N2C`: greater than 7; for `Cc1nc(NC(=O)N2CCC[C@H]2C(N)=O)sc1-c1csc(C(C)(C)C)n1`: greater than 7.

Staying with this test, now noted: screen: 3; 10 µM.
As for `O=C(NC1CCNCC1)c1n[nH]cc1NC(=O)c1c(Cl)cccc1Cl`, the “time to death of most cells in well” value is 3.
As to `CS(=O)(=O)CCNCc1ccc(-c2ccc3ncnc(Nc4ccc(OCc5cccc(F)c5)c(Cl)c4)c3c2)o1`, the “time to death of most cells in well” value was greater than 7.
On the same count and under the same terms, the same measure for `C=CC(=O)Nc1cccc(Sc2nc(Nc3ccc(N4CCN(C)CC4)cc3)ncc2Cl)c1`: 2.5; for `CNc1nc(Nc2cnn(C3CCN(C4COC4)CC3F)c2Cl)ncc1C(F)(F)F` (centres undefined): greater than 7; for `Cc1cc(Nc2cc(N3CCN(C)CC3)nc(Sc3ccc(NC(=O)C4CC4)cc3)n2)n[nH]1` [Tozasertib (VX-680, MK-0457)]: greater than 7.
Still for that read-out and setting: in the case of `Cc1nc(Nc2cnn(C3CCNCC3)c2)nc2c1N(C)C(=O)c1cc3ccccc3cc1N2C` it was 5.5.
On the same count and under the same terms, the same measure for `CNc1nc(-c2ccc3c(N)n[nH]c3c2)cc(N2C[C@@H](C(=O)NC3CCCCC3)CC[C@H]2C)n1`: greater than 7; for `C=CCc1ccc(O)c(-c2ccc(O)c(CC=C)c2)c1` [Honokiol]: greater than 7.
In the case of `CCN1CCN(Cc2ccc(C(=O)Nc3ccc(C)c(Oc4ccc5c(c4)CC(=O)N5)c3)cc2C(F)(F)F)CC1`, the “time to death of most cells in well” value is greater than 7.
On to `O=C1NC(=O)/C(=C/c2cccc(C(F)(F)F)c2)S1`, for which the “time to death of most cells in well” value is greater than 7.
`CN(c1ncccc1CNc1nc(Nc2ccc3c(c2)CC(=O)N3)ncc1C(F)(F)F)S(C)(=O)=O`: the “time to death of most cells in well” value is greater than 7.
The same measure, in the same setting: in the case of `CC(C)[C@H](CO)Nc1nc(Nc2cccc(Cl)c2)c2ncn(C(C)C)c2n1` [Purvalanol A] it was greater than 7.
Consider `CCN1CCN(C(=O)Cc2ccc(Nc3ncc(F)c(Nc4ccc(C(=O)Nc5ccccc5Cl)cc4)n3)cc2)CC1` [Aurora A Inhibitor I], for which the “time to death of most cells in well” value worked out at 6.
Consider `O=C1NC(=O)/C(=C/c2ccc(-c3ccc(F)cc3O)o2)S1`, for which the “time to death of most cells in well” value is greater than 7.
With `CCCS(=O)(=O)Nc1ccc(F)c(C(=O)c2c[nH]c3ncc(-c4ccc(Cl)cc4)cc23)c1F` [Vemurafenib (PLX4032, RG7204)], the “time to death of most cells in well” value is greater than 7.
On the same count and under the same terms, in the case of `NC(=O)c1cccc(-c2cc(Nc3ccc(OC(F)(F)F)cc3)ncn2)c1` it was greater than 7; in that of `CCOC(=O)c1cnc2ccc(-c3cncc(NS(=O)(=O)c4ccccc4)c3)cn12`, greater than 7; in that of `O=c1sn(-c2cccc3ccccc23)c(=O)n1Cc1ccccc1` [Tideglusib], greater than 7.
Still for that read-out and setting: the same measure for `O=C1Nc2ccc(I)cc2C1=Cc1cc(Br)c(O)c(Br)c1`: greater than 7; for `O=C(NCc1cccc(O)c1)Nc1nc(-c2ccncc2)cs1`: 6.5; for `Nc1nccc(Oc2ccc(NC(=O)c3c[nH]cc(-c4ccc(F)cc4)c3=O)cc2F)c1Cl`: greater than 7.
As to `COc1cccc(-c2cc(=O)c3ccccc3o2)c1N`, the “time to death of most cells in well” value is greater than 7.
On to `Cc1c(Cn2c(C)nc3c(C(=O)O)cc(N4CCOCC4)cc32)cccc1C(F)(F)F`, for which the “time to death of most cells in well” value was greater than 7.
`Cc1cnc(NC(=O)Nc2cc(Br)c(C)cc2OC[C@@H]2CNCCO2)cn1`: the “time to death of most cells in well” value was 6.5.
As to `O=C(Nc1ccc(OC(F)(F)F)cc1)c1sccc1NCc1ccnc2ccccc12`, the “time to death of most cells in well” value was greater than 7.
Same read-out and setting: the same measure for `C[S+]([O-])c1ccc(-c2nc(-c3ccc(F)cc3)c(-c3ccncc3)[nH]2)cc1` (centres undefined): greater than 7; for `CN1CC[C@@H](c2c(O)cc(O)c3c(=O)cc(-c4ccccc4Cl)oc23)[C@@H]1CO`: 5.5.
Same read-out and setting: the same measure for `CC[C@@](C)(Nc1ccnc(-c2c[nH]c3ncccc23)n1)C(=O)NCC(F)(F)F` [Decernotinib (VX-509)]: greater than 7; for `Cc1ccc(NC(=O)c2ccc(CN3CCN(C)CC3)cc2)cc1Nc1nccc(-c2cccnc2)n1` [Imatinib Mesylate (STI571)]: greater than 7; for `CCn1c(N)c(C(=O)NC)c(=O)c2ccc(C#CC(C)(O)COC)nc21` (centres undefined): greater than 7.
On the same count and under the same terms, in the case of `Cc1ccc(NC(=O)c2cccc(C(C)(C)C#N)c2)cc1Nc1ccc2ncn(C)c(=O)c2c1` it was greater than 7; in that of `O=C(c1ccc(F)c(F)c1Nc1ccc(I)cc1F)N1CC(O)([C@@H]2CCCCN2)C1` [Cobimetinib (GDC-0973, RG7420)], 5.
Consider `COCCOc1ccc2c(c1)ncn2-c1ccc2cccc(N3CCC(N)CC3)c2n1`, for which the “time to death of most cells in well” value is 5.5.
For `Cc1cc(C)c(/C=C2\C(=O)Nc3ccccc32)[nH]1` [Semaxanib (SU5416)], the “time to death of most cells in well” value is greater than 7.
Same read-out and setting: in the case of `CN1CCN(c2ccc3nc(-c4c(N)c5c(F)cccc5[nH]c4=O)[nH]c3c2)CC1` [Dovitinib (TKI-258, CHIR-258)] it was greater than 7; in that of `COc1cc(C(=O)NC2CCN(C)CC2)ccc1Nc1ncc2c(n1)N(C1CCCC1)CC(F)(F)C(=O)N2C`, greater than 7; in that of `Cc1nc(NC(=O)N2CCC[C@H]2C(N)=O)sc1-c1csc(C(C)(C)C)n1`, greater than 7.
